In all, about 33,000 sequences were measured (“E-score (-0.5 to 0.5)”: median about -0.036, highest 2% from about 0.37 on). Some of the results follow.
Target: T1, Yer064c (UniProt P40041)
T1 sequence: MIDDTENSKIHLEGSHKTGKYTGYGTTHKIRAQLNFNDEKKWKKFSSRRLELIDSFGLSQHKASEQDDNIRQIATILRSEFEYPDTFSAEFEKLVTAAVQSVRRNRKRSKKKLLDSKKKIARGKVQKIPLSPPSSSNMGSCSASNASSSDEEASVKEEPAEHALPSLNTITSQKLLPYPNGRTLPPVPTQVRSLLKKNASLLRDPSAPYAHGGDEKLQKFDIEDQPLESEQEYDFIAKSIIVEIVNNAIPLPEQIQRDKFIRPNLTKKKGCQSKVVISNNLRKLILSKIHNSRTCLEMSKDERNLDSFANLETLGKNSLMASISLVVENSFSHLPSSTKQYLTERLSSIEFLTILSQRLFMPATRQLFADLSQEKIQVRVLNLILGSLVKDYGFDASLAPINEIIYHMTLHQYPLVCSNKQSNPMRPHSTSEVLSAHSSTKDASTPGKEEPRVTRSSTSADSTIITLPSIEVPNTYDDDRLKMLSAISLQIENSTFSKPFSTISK
Assay: PBM E-score (8-mer binding enrichment) (E-score (-0.5 to 0.5)); higher = stronger / more preferred TF binding; most listed sequences are background and not binding sites
Conditions: protein concentration: 200 nM; construct: GST-full length
Method: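 Universal 'all 10-mer' protein binding microarrays (Agilent AMADID 015681) probed with GST-tagged S. cerevisiae TFs (full-length or DBD) made by in vitro transcription/translation (PURExpress), about 100-200 nM. Bound TF was detected with fluorescent anti-GST. Each ungapped 8-mer (which stands for itself and its reverse complement) is scored by the PBM enrichment score (E-score), a modified Wilcoxon-Mann-Whitney statistic from -0.5 to +0.5, computed with the Universal PBM Analysis Suite. Scale: above 0.35 generally sequence-specific binding.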

Sequence | PBM E-score
CTTCTTCC | -0.14
AGAAAGGA | -0.0694
ATTTAACA | 0.226
ACCAGAAC | 0.0565
AATCAAAT | 0.23
ATACTCAT | 0.371
GAGAGGAA | -0.0878
CGCGTCAG | -0.188
CGGAAAAA | -0.0589
AACTGTGG | -0.0242
CCAATTCC | -0.194
ATTATCGC | 0.119
ATGGACAA | 0.0469
AGGGTATG | -0.017
AGGCAGGC | -0.303
CATTTTGG | -0.116
GATACACA | 0.147
CTAAATCA | 0.337
AGAAATAG | 0.00239
GTACCCGA | -0.0616
CTCTCCGA | -0.117
ACACTGCT | -0.0282
AGCGATTG | -0.0217
ACTGAGAG | 0.0323
TGCCAGAA | -0.0788

Sequence | PBM E-score
GAGAAGAA | -0.0149
ACGGTACG | 0.0345
TACTTGCA | -0.0641
GCCCGTCC | -0.234
ACTTCTAA | 0.122
GTGGCATA | -0.194
AGGTTCTG | -0.128
CCTACATA | -0.152
GGGTCTGA | -0.0087
AGTCGAAA | 0.282
GTAAATAA | 0.0204
TAGTTTCA | 0.196
GACAGTCA | 0.409
AGTAGCTC | -0.176
ATATGCCG | -0.209
CACCTCGG | -0.0538
TACATGAA | 0.0413
GGAACTCC | -0.216
ACTGGACT | 0.113
GTATCCTA | -0.195
GACATAAA | 0.0495
GTCCTGTA | 0.113
AGGACATA | 0.00548
CACAGACG | 0.0852
CTCGGCAG | -0.108

Sequence | PBM E-score
AAGTGCGT | -0.063
CCGGGTGA | 0.176
GCATAAAA | 0.00233
AAGCACCT | -0.2
ATATTGGC | -0.228
CACCTGCG | -0.121
AACGTTCG | -0.115
CGTCCCGC | -0.0717
ACTCGTGA | 0.305
AAGCTTTG | -0.0898
AAGATAGC | -0.142
ATGTGAGC | 0.00993
TCAGGTCA | 0.0552
CTTCTAGA | 0.0143
ACCGTCCC | 0.0283
GAAAGAGA | 0.0896
AACTTCCG | 0.0922
ATCCGCTG | 0.0009
ATGCAGTA | -0.0989
ACTTTAAT | 0.107
ACGGAGCG | -0.0547
AACAGAAT | -0.0213
GTATTCAA | 0.087
AAGTATTA | 0.0874
TAGTCCGA | 0.339

Sequence | PBM E-score
GCTCAGCA | 0.067
GACCAAAC | -0.169
ACACCCGC | -0.134
AATAGGTG | -0.123
ACCCCTAC | -0.083
AAAAACAT | 0.00993
AGCCCTAT | -0.154
CTTACACC | -0.0859
CTTGGACA | -0.0882
CGTAGAAA | -0.01
GAAACTTA | 0.00118
CAGTCGCC | 0.254
TGAACCCA | 0.0604
AGGAAGCA | -0.157
AGATTCAT | 0.295
AGTTTTTA | 0.0774
CAAGTGGA | -0.178
CCTGAGGA | 0.00765
AATCTGGT | -0.0281
CACAACAA | -0.0531
CGTACTAC | -0.0626
AGCCGGAT | -0.0486
AAACTTTA | -0.0221
ATAGGCTG | 0.0794
AGCCTTGC | -0.217

Sequence | PBM E-score
ACTATGTC | 0.26
AGTCAGGG | 0.439
GCTTCGAC | -0.126
ACGTAGGG | -0.216
GAGGATCA | 0.173
CGAGCAGC | -0.0962
TGCGGCCA | -0.199
AGATGGAA | -0.0748
AATTTAGT | 0.363
GTGGTTGA | 0.123
AAGGCGTA | -0.221
CGGTTCGC | -0.159
CCAAATGG | -0.0901
CCTAGGTA | -0.158
AGGCTCAG | 0.102
GGCGGAAA | -0.269
ATACCCCC | -0.305
CGGGAAAC | -0.0906
CCCCTTTA | -0.109
CGGTCGTC | -0.0631
ACCATGGT | 0.265
ACTCTGAG | 0.209
GAGAACCA | -0.0378
CACGGGAA | -0.119
CCCCCACC | -0.414

Sequence | PBM E-score
ATACTCTC | 0.00838
CCCAGACG | -0.316
GCTACGCC | -0.224
GAGGGAAA | -0.222
ATCTCTTG | -0.108
CTCCCATA | -0.162
AGGGCACT | -0.364
CCGTAACC | 0.0426
ATTGCAGA | 0.0849
ACAGCCAC | 0.0513
CACCCTGG | -0.137
CCTCATGC | -0.144
ATCGTCCG | 0.00381
AAATTCAT | 0.0587
ACTTCATG | 0.00651
CACCCGTA | -0.0573
CCGCGAAC | -0.0811
AACAGTTA | 0.0987
AGAGGAGC | -0.0689
AATCCATG | 0.106
ACGCGCCG | -0.215
GGACCACA | -0.147
CGTTTTAG | -0.0279
ACGAAGTA | -0.0527
GCTCAGGA | 0.188

Sequence | PBM E-score
AAAGTGTT | -0.0823
CGGCAAAC | -0.212
ACATCGCT | -0.114
GGACTGTA | 0.0239
ACTCGGGG | 0.104
AGGTTCCA | -0.102
AGGCAGAT | -0.108
AATGCGGT | -0.252
CCTCCAGA | -0.201
ATCATTGG | 0.233
CATCCCTC | -0.225
GGAGTCCA | 0.243
TAATTAAA | 0.0874
TAAATGCA | -0.0221
TAATCGCA | 0.256
AGTCAGAG | 0.428
AAGAGAAG | 0.0383
AGCGTTGC | -0.278
AGTGTTGC | -0.0061
CAACGGCG | -0.247
ACTCCGCC | 0.136
ACTCACCC | 0.401

Source: the supplement of paper PMC3334620
